# Results as given in PubChem BioAssay AID1347165 (National Center for Advancing Translational Sciences (NCATS), 2019).
# Where “and” joins values, the source holds several entries; their conditions need not be identical. Identical values can stand only once. About 5,700 (2.6%) of roughly 220,000 compounds were called active. Inconclusive means that the source gave no clear call. Such entries were picked first, then a sample of the others. Calls come from the whole dose curve; as a rule, active = well fitted inhibition curve with a large enough effect; inconclusive = small, poorly fitted or top-dose-only effect; inactive = no such curve, though single readings can be large or run the other way. Potencies beside an inconclusive call are fits to weak or partial responses and may not hold up.
# Target: Lysine-specific demethylase 5B (Homo sapiens) (UniProt Q9UGL1)
# Experiment: Primary screen for KDM5B Histone Demethylases FDH-coupled qHTS; note: nearly all actives have a fitted effect of over 70% in size; for activity change, negative = inhibition: 0% is about no effect
# Conditions: FDH-coupled NADH fluorescence (FDH is formaldehyde dehydrogenase); activity change, negative = inhibition: at 57.7 µM (top of the series) unless noted
# Method in brief: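 Coupled FDH/NAD⁺ fluorescence readout. KDM5BΔAP 200 nM final; compound titration, 10 min RT preincubation; substrate mix 12.5 µM H3K4me3, 25 µM 2-OG, 50 µM Fe(II), 100 µM ascorbate, 0.25 mM NAD⁺, 0.25 U/mL FDH; ΔRFU over 30 min.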
# Potency is the fitted concentration of half-maximal effect; tags give direction and shape of the fitted curve.
# Chain of UniProt Q9UGL1 (Q9UGL1 whole entry, looked up): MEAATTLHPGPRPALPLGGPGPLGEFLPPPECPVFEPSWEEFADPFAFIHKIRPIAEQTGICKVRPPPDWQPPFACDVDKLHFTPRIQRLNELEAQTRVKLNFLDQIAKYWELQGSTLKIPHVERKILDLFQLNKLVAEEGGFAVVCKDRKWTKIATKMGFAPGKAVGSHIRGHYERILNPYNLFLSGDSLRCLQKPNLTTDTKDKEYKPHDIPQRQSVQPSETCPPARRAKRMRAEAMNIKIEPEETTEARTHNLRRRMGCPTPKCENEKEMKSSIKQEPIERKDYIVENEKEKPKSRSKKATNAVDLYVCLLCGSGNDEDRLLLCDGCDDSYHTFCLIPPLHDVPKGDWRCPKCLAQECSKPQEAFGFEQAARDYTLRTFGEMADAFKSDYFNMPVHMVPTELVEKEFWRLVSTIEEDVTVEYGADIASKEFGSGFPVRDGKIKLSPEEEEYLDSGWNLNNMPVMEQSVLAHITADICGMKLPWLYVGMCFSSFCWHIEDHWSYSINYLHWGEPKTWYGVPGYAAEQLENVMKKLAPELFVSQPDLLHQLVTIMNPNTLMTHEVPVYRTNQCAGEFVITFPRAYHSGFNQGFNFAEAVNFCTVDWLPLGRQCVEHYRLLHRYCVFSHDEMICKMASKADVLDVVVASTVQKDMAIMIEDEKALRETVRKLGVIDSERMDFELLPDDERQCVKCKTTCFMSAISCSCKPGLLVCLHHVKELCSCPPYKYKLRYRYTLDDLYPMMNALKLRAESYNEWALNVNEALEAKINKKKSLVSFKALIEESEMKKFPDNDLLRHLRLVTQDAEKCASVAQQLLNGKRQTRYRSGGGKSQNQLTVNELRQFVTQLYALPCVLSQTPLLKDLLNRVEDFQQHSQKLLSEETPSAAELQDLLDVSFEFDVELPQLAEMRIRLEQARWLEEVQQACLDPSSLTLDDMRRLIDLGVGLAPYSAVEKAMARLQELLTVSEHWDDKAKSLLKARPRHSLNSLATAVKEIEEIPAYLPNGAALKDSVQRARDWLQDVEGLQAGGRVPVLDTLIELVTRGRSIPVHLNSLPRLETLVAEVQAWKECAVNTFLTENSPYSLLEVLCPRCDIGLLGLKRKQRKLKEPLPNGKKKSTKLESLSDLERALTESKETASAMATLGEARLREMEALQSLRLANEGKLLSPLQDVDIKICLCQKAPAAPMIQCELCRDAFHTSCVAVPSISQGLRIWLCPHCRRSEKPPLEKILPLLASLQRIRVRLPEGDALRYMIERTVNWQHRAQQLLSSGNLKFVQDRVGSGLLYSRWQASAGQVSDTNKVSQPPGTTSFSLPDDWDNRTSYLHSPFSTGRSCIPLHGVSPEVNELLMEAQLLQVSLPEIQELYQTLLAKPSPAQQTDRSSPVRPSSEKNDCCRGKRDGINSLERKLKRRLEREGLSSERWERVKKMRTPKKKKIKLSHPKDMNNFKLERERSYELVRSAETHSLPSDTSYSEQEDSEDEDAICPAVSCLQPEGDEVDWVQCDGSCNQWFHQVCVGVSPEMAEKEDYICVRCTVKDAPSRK
Compound,Potency,"activity change, negative = inhibition"
COc1ccc(-c2oc3ncn4nc(-c5ccccc5O)nc4c3c2-c2ccc(OC)cc2)cc1,"inconclusive: 31.6 µM [inhibitor, single point]",–
CCNC(=O)NC(=O)COC(=O)c1cc(-c2ccc(C)o2)nc2ccccc12,–,inactive: 138%
O=C(CC1C(=O)NCCN1Cc1ccc(-c2ccccc2)cc1)NC(CO)CO (stereo not given),active: 20 µM,–
Cc1cn2c(=O)cc(COC(=O)c3cccc(NC(=O)c4ccc(C(C)(C)C)cc4)c3)nc2s1,"inconclusive: 35.5 µM [inhibitor, single point]",–
COC(=O)C(C)Oc1ccc2c(C)c(-c3ccc(OC)cc3)c(=O)oc2c1 (stereo not given),"inconclusive: 31.6 µM [inhibitor, partial curve, poor fit]",–
CCCN(CC1CC1)C(=O)CCC[C@@H]1[C@H]2CCCN3CCC[C@@H](CN1C(C)=O)[C@@H]23,"inconclusive: 28.2 µM [inhibitor, single point]",–
COc1cccc(Nc2ccc3cc(S(=O)(=O)N4CCC(C)CC4)ccc3n2)c1,"inconclusive: 31.6 µM [inhibitor, partial curve, poor fit]",–
O=C(c1cc(Br)cn2ccnc12)N1CCOCC1,"active: 28.2 µM and inconclusive: 35.5 µM [inhibitor, single point]",–
O=C(O)c1ccccc1-c1ccc(/C=N/O)o1,"inconclusive: 39.8 µM [inhibitor, single point]",–
Cc1nn(S(=O)(=O)c2ccc(C(C)(C)C)cc2)c(C)c1S(=O)(=O)N1CCCCCC1,"inconclusive: 20 µM [inhibitor, partial curve, poor fit]",–
Cc1cccc(C(=O)NNC(=O)C23CC4CC(CC(C4)C2)C3)c1O,"inconclusive: 31.6 µM [inhibitor, partial curve, poor fit]",–
O=C(Cn1ccn2nc(-c3ccc(F)cc3)c(CO)c2c1=O)NCc1ccccc1,"inconclusive: 22.4 µM [inhibitor, single point]",–
FC(F)(F)c1ccc2nc([C@H]3CCN(CC4CC4)C3)[nH]c2c1,–,inactive: -18.8% [at 86.2 µM]
Cc1ccc(NC(=O)c2oc3ccc(S(=O)(=O)N4CCC5(CC4)OCCO5)cc3c2C)cc1C,–,inconclusive: -50.4% [inhibitor]
O=C(NC1(O)C(=O)c2ccccc2C1=O)c1c(Cl)cccc1Cl,"inconclusive: 10 µM [inhibitor, partial curve, poor fit]",–
Cc1ccc(Cl)cc1N1CCN(C(=O)c2ccc(NC(=O)c3nsc4ccccc34)cc2)CC1,"inconclusive: 15.8 µM [inhibitor, partial curve, poor fit]",–
CCOC(=O)COc1ccc(CC)cc1C(=O)c1ccn2nc(-c3ccccc3)cc2n1,"inconclusive: 1.41 µM [inhibitor, full curve, poor fit]",–
Cc1ccccc1CCNC(=O)Cc1nn(C)c(=O)c2ccccc12,–,inactive: 7.78%
CC(C)(C)OC(=O)NCCNC(=O)c1cc2ccccc2[nH]1,"inconclusive: 25.1 µM [inhibitor, partial curve, poor fit]",–
COC(=O)C(Cc1c[nH]c2ccccc12)NC(=O)COc1cccc(C)c1 (stereo not given),"inconclusive: 31.6 µM [inhibitor, single point]",–

Compound,Potency,"activity change, negative = inhibition"
COc1ccc2c(c1)CCN=C2C[C@H]1CN(C(=O)C(C)(C)C)CC[C@H]1CC(=O)O,–,inactive: -4.14% [at 86.2 µM]
COc1ccc2c(C)c(CC(=O)N3CCCC3)c(=O)oc2c1OC,"inconclusive: 7.94 µM [inhibitor, partial curve, poor fit]",–
CCOCC1(C)COc2ccc(C(=O)NCc3ccc(F)cc3)cc2N1 (stereo not given),"inconclusive: 35.5 µM [inhibitor, partial curve, poor fit]",–
O=C(NC(c1ccc(Cl)cc1)c1cccnc1)C1CCCCC1 (stereo not given),–,inactive: 11.6%
COCC1CN(C(=O)c2nccn2C)CC12CCNCC2 (stereo not given),active: 25.1 µM,–
CCC1(N2CCN(C(=O)c3ccc(Cl)s3)CC2)CCN(S(C)(=O)=O)C1 (stereo not given),–,inactive: 186%
CCOC(=O)c1ccc(NC(=O)C2CCCN(c3ncnc4onc(-c5ccc(F)cc5)c34)C2)cc1 (stereo not given),"inconclusive: 39.8 µM [inhibitor, single point]",–
CN(C)Cc1ccc2c(c1)c(OC(C)(C)C(=O)NC1CC1)nn2Cc1ccccc1,active: 35.5 µM,–
CCN(Cc1cc2cc(C)ccc2[nH]c1=O)S(C)(=O)=O,"inconclusive: 28.2 µM [inhibitor, partial curve, poor fit]",–
CC(=O)NC1CCCc2c1[nH]c1ccc(Cl)cc21 (stereo not given),–,inactive: -5.31%
Cc1ccc(OCC(=O)Nc2cccc(-c3nc4ccccc4s3)c2)cc1,"inconclusive: 25.1 µM [inhibitor, single point]",–
Clc1cccc(N2CCN(c3nc4ccccc4n4nnnc34)CC2)c1,"inconclusive: 17.8 µM [inhibitor, partial curve, poor fit]",–
Cn1cc2c3c(cccc31)CN(C(=O)C1CC1)CC2,"inconclusive: 31.6 µM [inhibitor, partial curve, poor fit]",–
COc1ccc(C(=O)Nc2ccc3oc(-c4cccnc4)nc3c2)cc1,"inconclusive: 25.1 µM [inhibitor, partial curve, poor fit]",–
CN1CC(=O)N(C2CCC2)Cc2c(NCc3cccs3)ncnc21,"inconclusive: 28.2 µM [inhibitor, partial curve, poor fit]",–
COc1ccc(C2C=C(c3ccccc3)Nc3nc(NC(=O)c4cccc([N+](=O)[O-])c4)nn32)cc1 (stereo not given),"inconclusive: 8.91 µM [inhibitor, partial curve, poor fit]",–
COc1cc(OC)cc(C(=O)NC(=S)NNC(=O)[C@H]2C[C@@H]2c2ccccc2)c1,"inconclusive: 22.4 µM [inhibitor, single point]",–
CC(c1ccc(F)c(F)c1)N(C)C(=O)c1cc2ccccc2[nH]1 (stereo not given),–,inactive: -3.89%
COc1cccc(/C=C/c2nc(C#N)c(NCCc3ccccc3)o2)c1,"inconclusive: 15.8 µM [inhibitor, partial curve, poor fit]",–
O=C(COc1ccccc1F)Nc1ccc2oc(-c3cccc(Cl)c3)nc2c1,–,inconclusive: -36.7% [inhibitor]
